The text below walks through data of patent US20230303648A1 (OSE IMMUNOTHERAPEUTICS, published 2023).

Experiment [1] deals with T1, IL-7 receptor (IL-7R: CD127/CD132) on cells (human, UniProt P16871 21-459; P31785 23-369).
T1 sequence (looked up) 1: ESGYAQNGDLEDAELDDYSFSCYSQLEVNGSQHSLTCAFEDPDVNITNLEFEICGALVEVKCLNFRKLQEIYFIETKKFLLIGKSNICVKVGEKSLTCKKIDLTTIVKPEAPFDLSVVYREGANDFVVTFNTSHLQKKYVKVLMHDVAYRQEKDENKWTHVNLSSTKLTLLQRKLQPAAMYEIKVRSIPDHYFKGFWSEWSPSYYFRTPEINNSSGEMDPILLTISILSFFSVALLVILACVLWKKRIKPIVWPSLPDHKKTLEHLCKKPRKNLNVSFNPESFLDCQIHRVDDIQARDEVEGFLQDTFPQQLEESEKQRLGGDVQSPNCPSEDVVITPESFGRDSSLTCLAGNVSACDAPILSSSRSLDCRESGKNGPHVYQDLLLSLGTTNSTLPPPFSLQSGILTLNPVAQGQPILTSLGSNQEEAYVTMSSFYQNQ
T1 sequence (looked up) 2: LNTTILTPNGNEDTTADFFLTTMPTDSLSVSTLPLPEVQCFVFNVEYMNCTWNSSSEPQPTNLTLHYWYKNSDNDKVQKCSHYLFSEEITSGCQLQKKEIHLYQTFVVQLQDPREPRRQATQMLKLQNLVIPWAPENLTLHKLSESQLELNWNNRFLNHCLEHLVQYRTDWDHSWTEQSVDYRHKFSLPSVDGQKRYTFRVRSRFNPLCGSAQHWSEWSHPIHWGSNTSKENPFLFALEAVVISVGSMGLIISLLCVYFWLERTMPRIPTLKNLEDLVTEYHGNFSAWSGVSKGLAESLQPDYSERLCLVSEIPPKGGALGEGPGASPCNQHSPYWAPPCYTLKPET
As to the kind of experiment: cell-based or functional assay.

Experiment [2] addresses T2, CD127 recombinant protein (Histidine tagged, Sino ref 10975-H08H) (UniProt P16871 21-239).
T2 construct: bought; used in the CD127 sandwich ELISA; also called CD127 receptor; IL-7Ralpha; not shown: histidine tag
T2 sequence (looked up): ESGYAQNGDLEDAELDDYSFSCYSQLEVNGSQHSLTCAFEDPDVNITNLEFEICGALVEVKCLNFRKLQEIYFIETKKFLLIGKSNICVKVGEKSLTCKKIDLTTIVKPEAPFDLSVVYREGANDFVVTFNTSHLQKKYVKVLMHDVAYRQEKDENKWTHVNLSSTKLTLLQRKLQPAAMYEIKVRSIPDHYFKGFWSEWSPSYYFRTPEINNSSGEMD
As to the kind of experiment: sandwich ELISA: PD-1 immobilised, fusion preincubated with His-tagged CD127, anti-His detection.

Experiment [3] deals with T3, CD127 (Sinobiological, 10975-H03H-50) (UniProt P16871 21-239).
T3 construct: bought; immobilised on the CM5 chip in the Biacore assays; also called CD127 receptor
T3 sequence (looked up): T2 sequence (looked up)
As to the kind of experiment: Biacore: CD127 immobilised on CM5 chip, fusion as analyte (0.35-30 nM), two-state reaction model.

Experiment [4] deals with T3, CD127 (Sinobiological, 10975-H03H-50). As to the kind of experiment: Biacore: CD127 immobilised on sensor chip, fusion at escalating doses.
Experiment [5] deals with T4, CD132 receptor (Sinobiological 10555-H08B) (UniProt P31785 23-254).
T4 construct: bought; analyte in the Biacore CD132 assay; also called common gamma chain
T4 sequence (looked up): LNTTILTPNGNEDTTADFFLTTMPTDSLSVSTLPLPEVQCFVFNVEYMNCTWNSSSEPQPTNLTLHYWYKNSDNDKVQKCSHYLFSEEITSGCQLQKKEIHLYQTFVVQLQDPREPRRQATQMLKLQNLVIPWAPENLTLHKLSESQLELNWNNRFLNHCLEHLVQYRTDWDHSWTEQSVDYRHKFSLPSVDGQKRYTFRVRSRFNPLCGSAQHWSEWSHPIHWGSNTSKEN
Nature of the experiment: Biacore, steady-state model: CD127 immobilised, IL-7 construct injected at 30 nM, then CD132 at 31.25-500 nM (CD132 on the CD127 + fusion complex).

Experiment [6] has as its target T2, CD127 recombinant protein (Histidine …). Nature of the experiment: sandwich ELISA, PD-1 immobilised, molecule preincubated with His-tagged CD127, anti-His-biotin + streptavidin-peroxidase, 450 nm.
The target is the same in experiment [7]. As to the kind of experiment: sandwich ELISA, PD-1 immobilised, molecule at varied concentration + fixed quantity of His-tagged CD127, anti-His-biotin + streptavidin-peroxidase, 450 nm, blank deducted.
The target of experiment [8] is T5, biotinylated recombinant human PD-1 (human, UniProt Q15116 part only, limits assumed, biotinylated (site not stated)).
T5 construct: used in solution in the PD-1/PD-L1 antagonist ELISA; also called PD-1 receptor
Nature of the experiment: competition ELISA: PD-L1 immobilised (competitor), biotinylated PD-1 at 0.6 µg/mL premixed with the molecule.

For experiment [9], the target named is T6, recombinant human PD-1 (rPD1; Sino Biologicals, reference 10377-H08H) (human, UniProt Q15116 part only).
T6 construct: bought; also called hPD1; PD-1 receptor
As to the kind of experiment: ELISA: PD-1 immobilised, anti-human Fc peroxidase detection.

B1: anti PD-1 IL-7 WT bifunctional molecule, IgG4m isotype, (GGGGS)3 linker (other)
heavy: QIQLVQSGSELKKPGASVKVSCKASGYTFTHYAMNWVRQAPGQGLEWMGWINTNTGEPTYAQGFTGRFVFSLDTSVSTAYLQISSLKAEDTAVYYCAREREPGMDNWGQGTLVTVSSASTKGPSVFPLAPCSRSTSESTAALGCLVKDYFPEPVTVSWNSGALTSGVHTFPAVLQSSGLYSLSSVVTVPSSSLGTKTYTCNVDHKPSNTKVDKRV[… human IgG4 Fc with S228P L445P (EU numbers) …]GGGGSGGGGSGGGGSDCDIEGKDGKQYESVLMVSIDQLLDSMKEIGSNCLNNEFNFFKRHICDANKEGMFLFRAARKLRQFLKMNSTGDFDLHLLKVSEGTTILLNCTGQVKGRKPAALGEAQPTKSLEENKSLKEQKKLNDLCFLKRLLQEIKTCWNKILMGTKEH
light: DVVMTQSPLSLPVTLGQPASISCRSSQSLVHANTNTYLEWYQQRPGQSPRLLIYKVSNRFSGVPDRFSGSGSGTDFTLKISRVEAEDVGVYYCFQGTHVPNTFGQGTKLEIKRTVAAPSVFIFPPSDEQLKSGTASVVCLLNNFYPREAKVQWKVDNALQSGNSQESVTEQDSKDSTYSLSSTLTLSKADYEKHKVYACEVTHQGLSSPVTKSFNRGEC
notes: antibody-IL-7 fusion: IL-7 on the C-terminus of each heavy chain; IgG4 S228P; also called IgG4 G4S3 IL7 WT; IgG4 Fc G4S3 IL-7 WT
With B1, in experiment [1], the “pSTAT5 EC50 in CD3 T cells of human PBMCs” value amounted to 76 ng/mL and the “pSTAT5 EC50 in CD3 T cells of human PBMCs (second experiment, other donor)” value came to 0.52 ng/mL. Also, the EC50 in [2] was 0.0184 µg/mL. In experiment [3], the affinity, expressed as Kd, was 41.4 pM; the “Kd2” value is 0.000122 s⁻¹; the on-rate constant (kon) came to 5.76e+06 M⁻¹ s⁻¹. The same molecule had a Kd in experiment [4] of 870 pM. For the same molecule, the Kd in [5] is 118000 pM.

B2: anti PD-1 IL-7 WT bifunctional molecule, IgG1m isotype, (GGGGS)3 linker (other)
heavy: QIQLVQSGSELKKPGASVKVSCKASGYTFTHYAMNWVRQAPGQGLEWMGWINTNTGEPTYAQGFTGRFVFSLDTSVSTAYLQISSLKAEDTAVYYCAREREPGMDNWGQGTLVTVSS[… human IgG1 constant region with changes …]GGGGSGGGGSGGGGSDCDIEGKDGKQYESVLMVSIDQLLDSMKEIGSNCLNNEFNFFKRHICDANKEGMFLFRAARKLRQFLKMNSTGDFDLHLLKVSEGTTILLNCTGQVKGRKPAALGEAQPTKSLEENKSLKEQKKLNDLCFLKRLLQEIKTCWNKILMGTKEH
light: B1 light
notes: antibody-IL-7 fusion, IgG1 N298A (N297A)
B2: the “EC50 (read off the curve)” value in experiment [6] was roughly 0.008 µg/mL.

B3: Construction 2: anti PD-1*2 IL-7 W142H*1 (other)
heavy 1: QIQLVQSGSELKKPGASVKVSCKASGYTFTHYAMNWVRQAPGQGLEWMGWINTNTGEPTYAQGFTGRFVFSLDTSVSTAYLQISSLKAEDTAVYYCAREREPGMDNWGQGTLVTVSSASTKGPSVFPLAPSSKSTSGGTAALGCLVKDYFPEPVTVSWNSGALTSGVHTFPAVLQSSGLYSLSSVVTVPSSSLGTQTYICNVNHKPSNTKVDKKV[… human IgG1 Fc with changes …]GGGGSGGGGSGGGGSDCDIEGKDGKQYESVLMVSIDQLLDSMKEIGSNCLNNEFNFFKRHICDANKEGMFLFRAARKLRQFLKMNSTGDFDLHLLKVSEGTTILLNCTGQVKGRKPAALGEAQPTKSLEENKSLKEQKKLNDLCFLKRLLQEIKTCHNKILMGTKEH
heavy 2: QIQLVQSGSELKKPGASVKVSCKASGYTFTHYAMNWVRQAPGQGLEWMGWINTNTGEPTYAQGFTGRFVFSLDTSVSTAYLQISSLKAEDTAVYYCAREREPGMDNWGQGTLVTVSSASTKGPSVFPLAPSSKSTSGGTAALGCLVKDYFPEPVTVSWNSGALTSGVHTFPAVLQSSGLYSLSSVVTVPSSSLGTQTYICNVNHKPSNTKVDKKVEPKSCDKTHTCPPCPAPELLGGPSVFLFPPKPKDTLMISRTPEVTCVVVDVSHEDPEVKFNWYVDGVEVHNAKTKPREEQYASTYRVVSVLTVLHQDWLNGKEYKCKVSNKALPAPIEKTISKAKGQPREPQVYTLPPCRDELTKNQVSLWCLVKGFYPSDIAVEWESNGQPENNYKTTPPVLDSDGSFFLYSKLTVDKSRWQQGNVFSCSVMHEALHNHYTQKSLSLSPGK
light: B1 light
notes: IgG1 N298A, knob-into-hole
For the molecule B3, the concentration giving a half-maximal response (EC50 (read off the curve)) in [7] was roughly 900 pM. Further, the values for the half-maximal effective concentration (EC50) in [8] and in experiment [9] were 2170 pM and 26 pM, respectively. This molecule also registered a Kd in experiment [4] of 45200 pM.
